{"source": "patent US11479587B2", "about": "“Cationic intrinsically disordered antimicrobial peptides” (priority 2016, dated 2022)", "key": {"S. aureus ATCC 6538": {"system": "S. aureus ATCC 6538", "experiment": "CFU-assay, S. aureus-cidal activity", "assay_type": "cell-based, Staphylococcus aureus", "experimental": "Thus, within the present invention, the antimicrobial activity is generally measured in nutrient deficient 10 mM sodium phosphate buffer pH 5.5, containing 0.25% glucose, using the CFU-assay according to Steinberg and Lehrer, 1997 (supra), unless otherwise indicated. The CFU-assay allows determination of the minimal bactericidal concentration (MBC, e.g., MBC90 and MBC100; i.e. the concentration of compound required to achieve a specified reduction in bacterial cell number (microbial death or killing)).\nVarious peptides corresponding to repeat domains of hornerin (HR 1-11: HRNR 2606-2628; HR 1-17: HRNR 2656-2684 and HR 1-18: HRNR 2656-2677) were tested for P. aeruginosa ATCC 10145-cidal activity in 10 mM Na-phosphate buffer pH 5.5, containing 0.25% glucose by counting the numbers of colonies of surviving bacteria at serial, twofold dilutions from 300 μg/ml down to 19 ng/ml of each peptide (CFU-assay; Steinberg and Lehrer, 1997, Methods Mol. Biol. 78, 169-186).\nStaphylococcus aureus is a major skin pathogen, which causes skin infections, in particular in atopic dermatitis. The sensitivity of S. aureus ATCC 6538 towards several CIDAMPs was assessed using the CFU-assay as above (see Example 1). HR 1-18, which lacks S. aureus.-bactericidal activity, is converted in a S. aureus-cidal peptide, when all His are replaced by Arg (HR 1-18 4H-4R; see Table 13 and FIG. 9). […] HR 1-18 4H-4R is rich in Ser and Arg and contains a single Leu residue. When this single Leu was replaced by Gly in S. aureus-cidal HR 1-18 4H-4R (forming HR 1-18 4H-4R/L-G), S. aureus-cidal activity was abolished at both pH 7.0 and pH 5.5 (see Table 13 and FIG. 9)."}, "P. aeruginosa ATCC 10145": {"system": "P. aeruginosa ATCC 10145", "experiment": "CFU-assay, P. aeruginosa-cidal activity", "assay_type": "cell-based, Pseudomonas aeruginosa", "conditions": "for MBC90 / MBC100: pH 5.5, 0.25% glucose"}, "C. neoformans": {"system": "C. neoformans", "conditions": "standard conditions at pH 7.4; activity at concentration <32 pg/ml"}, "[1]": {"system": "Streptococcus pyogenes ATCC 12344", "experiment": "CFU-assay, antimicrobial activity spectrum", "assay_type": "cell-based"}, "[2]": {"system": "Propionibacterium acnes ATCC 6919", "experiment": "CFU-assay, antimicrobial activity spectrum", "assay_type": "cell-based"}, "[3]": {"system": "Burkholderia cepacia ATCC 25416", "experiment": "CFU-assay, Burkholderia cepacia-cidal activity", "assay_type": "cell-based"}, "[4]": {"system": "Prevotella oralis ATCC 33321", "experiment": "CFU-assay, antimicrobial activity spectrum", "assay_type": "cell-based"}, "[5]": {"system": "Staphylococcus epidermidis ATCC 14990", "experiment": "CFU-assay, antimicrobial activity spectrum", "assay_type": "cell-based", "conditions": "pH 7.3, 1% TSB"}, "[6]": {"system": "Streptococcus pneumoniae ATCC 33400", "experiment": "CFU-assay, antimicrobial activity spectrum", "assay_type": "cell-based"}, "[7]": {"system": "Klebsiella pneumoniae ATCC 13883", "experiment": "CFU-assay, Klebsiella pneumoniae-cidal activity", "assay_type": "cell-based", "conditions": "pH 5.5, 0.25% glucose"}}, "note": "At least one peptide structure holds a part that was inferred or is arguable (an end, a ring closure or a residue). Non-standard residues stand in square brackets, D forms with d. Residues, ends and D or L forms follow the SMILES beside them. *: point of attachment. Palmitoyl = CCCCCCCCCCCCCCCC(=O)*; Dap = NC[C@H](N)C(=O)O"}
{"smiles": "CCCCCCCCCCCCCCCC(=O)NCC(=O)N[C@@H](CCCNC(=N)N)C(=O)NCC(=O)N[C@@H](CCCNC(=N)N)C(=O)O", "note": "[Pal-GR4, Pal-GRGR] (HELM PEPTIDE1{[CCCCCCCCCCCCCCCC(=O)[*:2]].G.R.G.R}$$$$V2.0)", "values": [{"measurement": "MBC90", "setting": "S. aureus ATCC 6538; pH 5.5, 0.25% glucose", "result": 2.35, "unit": "µg/mL"}, {"measurement": "MBC100", "setting": "S. aureus ATCC 6538; pH 5.5, 0.25% glucose", "result": "9.375, MBC99: μg/ml"}, {"measurement": "MBC99", "setting": "S. aureus ATCC 6538; pH 5.5, 0.25% glucose, kills 99.0% of inoculum", "result": 4.7, "unit": "µg/mL"}, {"measurement": "MBC90", "setting": "P. aeruginosa ATCC 10145", "result": 2.35, "unit": "µg/mL"}, {"measurement": "MBC100", "setting": "P. aeruginosa ATCC 10145", "result": 9.375, "unit": "µg/mL"}, {"measurement": "Antifungal activity, C. neoformans ATCC 208821", "setting": "C. neoformans", "result": "A (A-active)"}]}
{"smiles": "CCCCCCCCCCCCCCCC(=O)NCC(=O)N[C@@H](CN)C(=O)NCC(=O)N[C@@H](CN)C(=O)O", "note": "[Pal-GDap4, Pal-GDapGDap] (Palmitoyl-G[Dap]G[Dap]-OH)", "values": [{"measurement": "MBC100", "setting": "S. aureus ATCC 6538; pH 5.5", "result": 4.4, "unit": "µM"}, {"measurement": "MBC90", "setting": "S. aureus ATCC 6538; pH 5.5, 0.25% glucose", "result": 2.35, "unit": "µg/mL"}, {"measurement": "MBC100", "setting": "S. aureus ATCC 6538; pH 5.5, 0.25% glucose", "result": 4.7, "unit": "µg/mL"}, {"measurement": "MBC90", "setting": "P. aeruginosa ATCC 10145", "result": 2.35, "unit": "µg/mL"}, {"measurement": "MBC100", "setting": "P. aeruginosa ATCC 10145", "result": 9.38, "unit": "µg/mL"}, {"measurement": "Antifungal activity, C. neoformans ATCC 208821", "setting": "C. neoformans", "result": "A (A-active)"}]}
{"smiles": "CCCCCCCCCCCCCCCC(=O)NCC(=O)N[C@@H](CCCNC(=N)N)C(=O)N[C@@H](Cc1c[nH]cn1)C(=O)NCC(=O)N[C@@H](CO)C(=O)NCC(=O)N[C@@H](CC(C)C)C(=O)NCC(=O)N[C@@H](Cc1c[nH]cn1)C(=O)N[C@@H](CO)C(=O)N[C@@H](CO)C(=O)N[C@@H](CO)C(=O)N[C@@H](Cc1c[nH]cn1)C(=O)NCC(=O)N[C@@H](CCC(N)=O)C(=O)N[C@@H](Cc1c[nH]cn1)C(=O)NCC(=O)N[C@@H](CO)C(=O)NCC(=O)N[C@@H](CO)C(=O)NCC(=O)N[C@@H](CCCNC(=N)N)C(=O)O", "note": "[Pal-HR 1-18] (HELM PEPTIDE1{[CCCCCCCCCCCCCCCC(=O)[*:2]].G.R.H.G.S.G.L.G.H.S.S.S.H.G.Q.H.G.S.G.S.G.R}$$$$V2.0)", "values": [{"measurement": "S. aureus MBC90", "setting": "S. aureus ATCC 6538; pH 5.5", "result": 0.51, "unit": "µM"}, {"measurement": "S. aureus MBC100", "setting": "S. aureus ATCC 6538; pH 5.5", "result": 32, "unit": "µM"}, {"measurement": "MBC90", "setting": "S. aureus ATCC 6538; pH 5.5, 0.25% glucose", "result": 1.18, "unit": "µg/mL"}, {"measurement": "MBC90", "setting": "S. aureus ATCC 6538; pH 7.3, 0.25% glucose", "result": ">300", "unit": "µg/mL"}, {"measurement": "MBC100", "setting": "S. aureus ATCC 6538; pH 7.3, 0.25% glucose", "result": ">300", "unit": "µg/mL"}, {"measurement": "MBC90", "setting": "S. aureus ATCC 6538; pH 7.3, 1% TSB", "result": ">300", "unit": "µg/mL"}, {"measurement": "MBC100", "setting": "S. aureus ATCC 6538; pH 7.3, 1% TSB", "result": ">300", "unit": "µg/mL"}, {"measurement": "MBC90", "setting": "[1]; pH 6.0, 0.25% glucose", "result": 0.15, "unit": "µg/mL"}, {"measurement": "MBC100", "setting": "[1]; pH 6.0, 0.25% glucose", "result": 0.59, "unit": "µg/mL"}, {"measurement": "MBC90", "setting": "[1]; pH 7.3, 0.25% glucose", "result": 0.15, "unit": "µg/mL"}, {"measurement": "MBC100", "setting": "[1]; pH 7.3, 0.25% glucose", "result": 0.3, "unit": "µg/mL"}, {"measurement": "MBC90", "setting": "[1]; pH 7.3, 1% TSB", "result": 9.38, "unit": "µg/mL"}, {"measurement": "MBC100", "setting": "[1]; pH 7.3, 1% TSB", "result": 9.375, "unit": "µg/mL"}, {"measurement": "MBC90", "setting": "[2]; pH 5.5, 0.25% glucose", "result": 0.3, "unit": "µg/mL"}, {"measurement": "MBC100", "setting": "[2]; pH 5.5, 0.25% glucose", "result": 0.59, "unit": "µg/mL"}, {"measurement": "MBC90", "setting": "[2]; pH 7.3, 0.25% glucose", "result": 0.59, "unit": "µg/mL"}, {"measurement": "MBC100", "setting": "[2]; pH 7.3, 0.25% glucose", "result": 2.35, "unit": "µg/mL"}, {"measurement": "MBC90", "setting": "[2]; pH 7.3, 1% TSB", "result": 1.18, "unit": "µg/mL"}, {"measurement": "MBC100", "setting": "[2]; pH 7.3, 1% TSB", "result": 4.7, "unit": "µg/mL"}, {"measurement": "MBC90", "setting": "[3]; pH 5.5, 0.25% glucose", "result": ">300", "unit": "µg/mL"}, {"measurement": "MBC100", "setting": "[3]; pH 5.5, 0.25% glucose", "result": ">300", "unit": "µg/mL"}, {"measurement": "MB100", "setting": "[3]; pH 7.3", "result": 4.9, "unit": "µM"}, {"measurement": "MBC90", "setting": "[3]; pH 7.3", "result": 2.4, "unit": "µM"}, {"measurement": "MBC90", "setting": "[3]; pH 7.3, 0.25% glucose", "result": 75, "unit": "µg/mL"}, {"measurement": "MBC100", "setting": "[3]; pH 7.3, 0.25% glucose", "result": ">300", "unit": "µg/mL"}, {"measurement": "MBC100", "setting": "[4]; pH 6.5, 0.25% glucose", "result": ">300", "unit": "µg/mL"}, {"measurement": "MDC90", "setting": "[4]; pH 7.3", "result": 8, "unit": "M"}, {"measurement": "MBC100", "setting": "[4]; pH 7.3, 1% TSB", "result": 150, "unit": "µg/mL"}, {"measurement": "MBC90", "setting": "[5]", "result": ">300", "unit": "µg/mL"}, {"measurement": "MBC100", "setting": "[5]", "result": ">300", "unit": "µg/mL"}, {"measurement": "MBC90", "setting": "[6]; pH 6.5, 0.25% glucose", "result": 2.35, "unit": "µg/mL"}, {"measurement": "MBC100", "setting": "[6]; pH 6.5, 0.25% glucose", "result": 9.37, "unit": "µg/mL"}, {"measurement": "MBC90", "setting": "[6]; pH 7.3, 0.25% glucose", "result": 2.35, "unit": "µg/mL"}, {"measurement": "MBC100", "setting": "[6]; pH 7.3, 0.25% glucose", "result": 4.7, "unit": "µg/mL"}, {"measurement": "MBC90", "setting": "[6]; pH 7.3, 1% TSB", "result": 9.38, "unit": "µg/mL"}, {"measurement": "MBC90", "setting": "[7]", "result": 0.3, "unit": "µg/mL"}, {"measurement": "MBC100", "setting": "[7]", "result": 1.18, "unit": "µg/mL"}, {"measurement": "P. aeruginosa MBC90", "setting": "P. aeruginosa ATCC 10145; pH 5.5", "result": 0.032, "unit": "µM"}, {"measurement": "P. aeruginosa MBC100", "setting": "P. aeruginosa ATCC 10145; pH 5.5", "result": 0.256, "unit": "µM"}, {"measurement": "MBC90", "setting": "P. aeruginosa ATCC 10145", "result": 0.075, "unit": "µg/mL"}, {"measurement": "MBC100", "setting": "P. aeruginosa ATCC 10145", "result": 0.59, "unit": "µg/mL"}]}
